{"source": "PubChem BioAssay (NCATS)", "key": {"[1]": {"assay": "qHTS for Activators of Parkin Expression: LOPAC Validation Assay (FLuc Reporter) (AID 720573)", "outline": "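Neuronal cell line stably carrying FLuc/NLuc coincidence reporter under Parkin promoter; cells plated 24 h, then compounds added in 7-point dose response for 24 h at 37 C. FLuc luminescence read; normalized to DMSO and positive control (100%).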"}, "[2]": {"assay": "qHTS assay for small molecule agonists of the antioxidant response element (ARE) signaling pathway (AID 651741; active means well fitted activation curve with a large enough effect in the signal ratio; inconclusive means small, poorly fitted or top-dose-only effect, or effect the other way, or a change in a side signal; the % refers to the signal ratio; further: potency means the concentration at half of the fitted maximal effect; on activation: % of control where 0% means no effect)", "settings": "HepG2 ARE-bla reporter, beta-lactamase FRET ratio, 16 h", "outline": "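CellSensor ARE-bla HepG2 cells (2,000/well) carrying ARE-driven beta-lactamase, exposed 16 h at 37 C. LiveBLAzer B/G FRET substrate added for 2 h at room temperature; fluorescence intensity read.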"}, "[3]": {"assay": "qHTS for Activators of Parkin Expression: LOPAC Validation Assay (NLuc Reporter) (AID 720572; further: potency means the concentration at half of the fitted maximal effect)", "outline": "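Neuronal cells with a Parkin promoter-driven FLuc/NLuc coincidence reporter were treated 24 h at 37 C in 7-point dose response (LOPAC). NLuc luminescence read after FLuc; signals normalized to DMSO and positive control (100%).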"}, "[4]": {"assay": "qHTS assay for small molecule antagonists of the retinoid-related orphan receptor gamma (ROR-gamma) signaling pathway - cell viability counter screen (AID 720652; active means well fitted curve in the direction sought with a large enough effect in the repeat runs; inconclusive means weak or mixed curves; inactive means no such curve, though single readings can be large; an effect the other way counts as inactive or inconclusive;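 further: compound exposure lasted 16 hr before ATP read; on the % scale 0 is the no-effect control and ±100 the full control effect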)", "outline": "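Luminescence from CellTiter-Glo after 30 min at room temperature reported cellular ATP as the cytotoxicity measure. Cells were the CHO reporter line with doxycycline-induced ROR-gamma expression, exposed to compound for 16 hr at 37 C.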"}, "[5]": {"assay": "qHTS assay for small molecule disruptors of the mitochondrial membrane potential - 1 hr assay (AID 651754; calls by dose curve; further: nearly all actives have a fitted effect of over 35% in size; further: potency means the concentration at half of the fitted maximal effect; on ratio change, negative = depolarisation: on the % scale 0 is the no-effect control and ±100 the full control effect)", "settings": "ratio change, negative = depolarisation: at 92.2 µM (top of the series)", "outline": "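HepG2, 2,000 cells/well, overnight attachment; cpd or DMSO 1 hr, 37C/5% CO2; Mito-MPS dye 30 min, 37C; fluorescence monomer (490/535) and aggregate (540/590).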"}, "[6]": {"assay": "qHTS assay for small molecule disruptors of the mitochondrial membrane potential - 5 hr assay (AID 651755; calls by dose curve; further: nearly all actives have a fitted effect of over 40% in size; further: potency means the concentration at half of the fitted maximal effect; on ratio change, negative = disruption: on the % scale 0 is the no-effect control and ±100 the full control effect)", "settings": "JC-1-type ratio dye; ratio change, negative = disruption: at 92.2 µM (top of the series)", "outline": "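HepG2 cells (2,000/well), attached overnight, exposed to compound 5 hr at 37C, then Mito-MPS dye 30 min. Fluorescence read for monomers (490/535 nm) and aggregates (540/590 nm).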"}, "[7]": {"biological_target": "Nuclear receptor ROR-gamma (Homo sapiens) (UniProt P51449)", "sequence (P51449 whole entry, looked up)": "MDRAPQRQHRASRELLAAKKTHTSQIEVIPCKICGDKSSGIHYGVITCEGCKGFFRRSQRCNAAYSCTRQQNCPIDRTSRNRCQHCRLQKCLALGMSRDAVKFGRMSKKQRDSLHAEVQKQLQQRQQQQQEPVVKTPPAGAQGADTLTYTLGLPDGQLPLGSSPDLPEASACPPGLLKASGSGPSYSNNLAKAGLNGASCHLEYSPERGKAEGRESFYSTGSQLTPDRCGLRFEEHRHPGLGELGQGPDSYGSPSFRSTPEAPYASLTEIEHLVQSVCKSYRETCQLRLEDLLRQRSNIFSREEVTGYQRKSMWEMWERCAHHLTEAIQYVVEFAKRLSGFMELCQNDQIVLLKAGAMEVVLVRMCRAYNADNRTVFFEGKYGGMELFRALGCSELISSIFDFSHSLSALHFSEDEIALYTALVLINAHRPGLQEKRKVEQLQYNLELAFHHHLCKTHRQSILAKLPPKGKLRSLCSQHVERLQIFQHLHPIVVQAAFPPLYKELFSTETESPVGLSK", "assay": "qHTS assay for small molecule antagonists of the retinoid-related orphan receptor gamma (ROR-gamma) signaling pathway (AID 651802); further: potency means the concentration at half of the fitted maximal effect; nearly all actives have a fitted effect of over 60% in size", "settings": "ROR-gamma antagonist cell reporter assay", "outline": "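CHO, TET-inducible ROR + RORE-LUC reporter, 1536-well qHTS. Compound pinned, doxycycline added, 16hr 37C/5% CO2. ONE-Glo, 30 min RT, luminescence; signal drop scored as antagonism.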"}, "[8]": {"assay": "qHTS assay for small molecule agonists of the antioxidant response element (ARE) signaling pathway measured by Nrf2-dependant transcriptional activity - cell viability counter screen (AID 720653; active means well fitted curve in the direction sought with a large enough effect in the repeat runs; inconclusive means weak or mixed curves; inactive means no such curve, though single readings can be large; an effect the other way counts as inactive or inconclusive; further: potency means the concentration at half of the fitted maximal effect)", "settings": "ARE-bla HepG2 viability, CellTiter-Glo ATP luminescence, 16 h", "outline": "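ARE-bla HepG2 cells treated with compounds for 16 h at 37C; this counter screen measures viability as intracellular ATP by CellTiter-Glo luminescence after 30 min at room temperature.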"}, "[9]": {"biological_target": "Tumor necrosis factor (Homo sapiens) (UniProt P01375)", "sequence (P01375 whole entry, looked up)": "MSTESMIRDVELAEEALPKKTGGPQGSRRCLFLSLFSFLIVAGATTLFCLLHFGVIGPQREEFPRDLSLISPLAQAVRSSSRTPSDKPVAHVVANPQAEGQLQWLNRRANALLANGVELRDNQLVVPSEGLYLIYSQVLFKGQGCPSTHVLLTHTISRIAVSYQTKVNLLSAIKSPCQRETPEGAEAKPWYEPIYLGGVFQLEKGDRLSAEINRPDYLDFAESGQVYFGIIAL", "assay": "qHTS assay to identify small molecules that stimulate Tumor Necrosis Factor-alpha (TNF-alpha) secretion (AID 651757; active means well fitted curve in the direction sought with a large enough effect in the signal ratio; inconclusive means small, poorly fitted or top-dose-only effect, or a change in a side signal; inactive means no such curve, though single readings can be large or run the other way; the % refers to the signal ratio; further: 0% is about no effect)", "settings": "Human cells, HTRF 665/615 ratio; at 92.2 µM (top of the series)", "outline": "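Read-out is HTRF, a TR-FRET sandwich of cryptate- and XL665-labeled anti-TNF-alpha antibodies detecting cytokine secreted by THP-1 cells. Cells had been incubated with test compounds at 37 C for 17 hrs beforehand.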"}, "[10]": {"assay": "qHTS assay for small molecule activators of the p53 signaling pathway (AID 651743; active means well fitted activation curve with a large enough effect in the signal ratio, not every such curve was filed as active; inconclusive means small, poorly fitted or top-dose-only effect, or a change in a side signal; the % refers to the signal ratio; further: % of control where 0% means no effect)", "settings": "HCT-116 p53RE-bla, beta-lactamase FRET ratio, 16 h; activation: active compounds read high", "outline": "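p53RE-bla HCT-116 cells carrying a beta-lactamase reporter under p53 response elements were exposed to compounds for 16 hours at 37 C. Reporter activity read as fluorescence after 2 hours at room temperature with LiveBLAzer B/G FRET substrate.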"}, "[11]": {"assay": "qHTS assay for small molecule agonists of the antioxidant response element (ARE) signaling pathway measured by Nrf2-dependant transcriptional activity (AID 720636; active means well fitted curve in the direction sought with a large enough effect in the repeat runs; inconclusive means weak or mixed curves; inactive means no such curve, though single readings can be large; an effect the other way counts as inactive or inconclusive; further: potency means the concentration at half of the fitted maximal effect)", "settings": "ARE-luc HepG2, Nrf2 luciferase reporter, 16 h", "outline": "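Nrf2-dependent transcription is measured in ARE-luc HepG2 cells: compound is applied for 16 hr at 37 C after a 6 hr attachment period, and luciferase activity is quantified by luminescence using ONE-Glo.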"}, "[12]": {"biological_target": "Tyrosine-protein kinase Yes (Homo sapiens) (UniProt P07947)", "sequence (P07947 whole entry, looked up)": "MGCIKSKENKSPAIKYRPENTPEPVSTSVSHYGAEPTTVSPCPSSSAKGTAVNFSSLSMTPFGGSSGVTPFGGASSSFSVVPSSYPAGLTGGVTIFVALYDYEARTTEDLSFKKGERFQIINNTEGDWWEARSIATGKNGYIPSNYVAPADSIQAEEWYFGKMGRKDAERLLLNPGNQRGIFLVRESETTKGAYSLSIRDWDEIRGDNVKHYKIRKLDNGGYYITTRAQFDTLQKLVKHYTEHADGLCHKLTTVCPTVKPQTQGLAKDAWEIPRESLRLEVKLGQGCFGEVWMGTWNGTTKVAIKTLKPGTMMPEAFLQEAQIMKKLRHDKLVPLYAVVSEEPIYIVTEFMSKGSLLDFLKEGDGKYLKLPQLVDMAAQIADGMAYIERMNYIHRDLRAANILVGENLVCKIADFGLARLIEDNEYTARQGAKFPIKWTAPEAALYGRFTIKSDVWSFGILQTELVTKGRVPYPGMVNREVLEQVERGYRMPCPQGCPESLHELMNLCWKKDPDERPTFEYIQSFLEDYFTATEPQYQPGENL", "assay": "qHTS for small molecule inhibitors of Yes1 kinase: Primary Screen (AID 686947);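 further: plate controls were DMSO with enzyme for no effect and no-enzyme DMSO wells for full effect; nearly all actives have a fitted effect of over 60% in size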", "outline": "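Yes1 (4 nM) preincubated 20 min with compound, then 60 min room-temperature reaction with 0.1 mM ATP and 0.3 mg/mL poly(E4Y) in pH 7.5 Tris, 10 mM MgCl2. ADP measured by ADP-Glo luminescence, normalised to enzyme/no-enzyme controls.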"}, "[13]": {"assay": "Cell Proliferation Assay against the TMD8 Cell Line (Caspase readout at 16 hrs) (AID 651712); further: potency means the concentration at half of the fitted maximal effect", "outline": "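TMD8 cells in RPMI with 5% FBS were treated with compound for 16 h at 37 C, then caspase 3/7 activation was read by Caspase-Glo luminescence. Percent activity was scaled to DMSO (0%) and 9.2 uM bortezomib final (100%).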"}, "[14]": {"settings": "activation: at 96 µM (top of the series)"}}, "note": "Several values for one entry are separate records, joined by “and”; a condition that tells them apart may be missing. Identical values can stand only once. Inconclusive means that the source gave no clear call. Such entries were picked first, then a sample of the others. For part of these data: Potencies beside an inconclusive call are fits to weak or partial responses and may not hold up. Activity calls are given as the source filed them. Unless noted, the call rests on the fitted dose curve; in most records, active means well fitted curve in the direction sought with a large enough effect; inconclusive means small, poorly fitted or top-dose-only effect, or another doubt; inactive means no such curve, though single readings can be large; an effect the other way counts as inactive or inconclusive. Residues, ends and D or L forms follow the SMILES beside them. Tags describe the fitted curve by direction and shape.", "data": [{"compound": "CN1CCC(=C2c3ccccc3CC(=O)c3sccc32)CC1", "values": [{"measurement": "Potency", "setting": "[1]", "result": "inactive"}]}, {"compound": "CCCC(CCC)C(=O)O", "values": [{"measurement": "Potency", "setting": "[2]; [14]", "result": "inconclusive: 1410 µM [activator, partial curve]"}]}, {"compound": "Cn1c(=O)c2[nH]cnc2n(C)c1=O", "values": [{"measurement": "Potency", "setting": "[2]; [14]", "result": "inactive"}, {"measurement": "Potency", "setting": "[3]", "result": "inactive"}, {"measurement": "Potency", "setting": "[4]", "result": "inactive"}]}, {"compound": "CCc1nc(N)nc(N)c1-c1ccc(Cl)cc1", "values": [{"measurement": "Potency", "setting": "[2]; [14]", "result": "inconclusive: 37.6 µM [activator, partial curve]"}, {"measurement": "activation", "setting": "[2]; [14]", "result": "inconclusive: 10.7%"}, {"measurement": "ratio change, negative = depolarisation", "setting": "[5]", "result": "inconclusive: -23.8%"}, {"measurement": "ratio change, negative = disruption", "setting": "[6]", "result": "inconclusive: -18.5%"}, {"measurement": "Potency", "setting": "[7]", "result": "inconclusive: 29.8 µM [inhibitor, partial curve, poor fit]"}, {"measurement": "Potency", "setting": "[8]", "result": "active: 11.2 µM"}]}, {"compound": "Cc1ncc([N+](=O)[O-])n1CCO", "values": [{"measurement": "Potency", "setting": "[2]; [14]", "result": "inactive"}, {"measurement": "activation (TNF-alpha secretion)", "setting": "[9]", "result": "inconclusive: 0.815%"}, {"measurement": "Potency", "setting": "[4]", "result": "inactive"}]}, {"compound": "CN1CCN(CCCN2c3ccccc3Sc3ccc(Cl)cc32)CC1", "values": [{"measurement": "Potency", "setting": "[1]", "result": "inactive"}]}, {"compound": "CS(=O)(=O)OCCCCOS(C)(=O)=O", "values": [{"measurement": "Potency", "setting": "[2]; [14]", "result": "inconclusive: 75 µM [activator, partial curve, poor fit]"}, {"measurement": "activation", "setting": "[2]; [14]", "result": "inconclusive: 10.1% and inconclusive: 10.7%"}]}, {"compound": "O=C(O)c1cc(=O)[nH]c(=O)[nH]1", "values": [{"measurement": "Potency", "setting": "[2]; [14]", "result": "inactive"}]}, {"compound": "N[C@@H](Cc1cc(I)c(Oc2cc(I)c(O)c(I)c2)c(I)c1)C(=O)O", "values": [{"measurement": "Potency", "setting": "[2]; [14]", "result": "active: 54.5 µM"}, {"measurement": "activation", "setting": "[10]", "result": "inconclusive: 30.2%"}, {"measurement": "Potency", "setting": "[11]", "result": "inconclusive: 68.6 µM [activator, partial curve, poor fit]"}]}, {"compound": "Oc1ccc(-c2nc(-c3ccc(F)cc3)c(-c3ccncc3)[nH]2)cc1", "values": [{"measurement": "Potency", "setting": "[3]", "result": "inconclusive: 23.1 µM [activator, single point]"}]}, {"compound": "CCOC(=O)C(C)(C)Oc1ccc(Cl)cc1", "values": [{"measurement": "Potency", "setting": "[2]; [14]", "result": "inactive"}]}, {"compound": "CCn1cc(C(=O)O)c(=O)c2ccc(C)nc21", "values": [{"measurement": "activation", "setting": "[2]; [14]", "result": "inconclusive: 6.59%"}, {"measurement": "activation (TNF-alpha secretion)", "setting": "[9]", "result": "inconclusive: 0.51%"}]}, {"compound": "Cn1cnc2c1c(=O)[nH]c(=O)n2C", "values": [{"measurement": "Potency", "setting": "[2]; [14]", "result": "inactive"}]}, {"compound": "O=C(N[C@H](CO)[C@H](O)c1ccc([N+](=O)[O-])cc1)C(Cl)Cl", "values": [{"measurement": "Potency", "setting": "[2]; [14]", "result": "inconclusive: 54.5 µM [activator, partial curve]"}]}, {"compound": "CC(C)(C)c1[nH]cnc1C=c1[nH]c(=O)c(=Cc2ccccc2)[nH]c1=O", "values": [{"measurement": "Potency", "setting": "[12]", "result": "inactive"}]}, {"compound": "CN(C)CCOC(c1ccccc1)c1ccccc1", "values": [{"measurement": "Potency", "setting": "[1]", "result": "inactive"}]}, {"compound": "Cc1cnc(C(=O)NCCc2ccc(S(=O)(=O)NC(=O)NC3CCCCC3)cc2)cn1", "values": [{"measurement": "Potency", "setting": "[1]", "result": "inactive"}]}, {"compound": "NCCS(=O)(=O)O", "values": [{"measurement": "Potency", "setting": "[2]; [14]", "result": "inconclusive: 10.6 µM [activator, full curve, poor fit]"}]}, {"compound": "COC(=O)[C@H](Cc1ccccc1)NC(=O)[C@@H](N)CC(=O)O", "note": "(H-Asp-Phe-OMe)", "values": [{"measurement": "activation", "setting": "[2]; [14]", "result": "inconclusive: 8.45%"}, {"measurement": "activation", "setting": "[2]; at 96 µM (top of the series)", "result": "inactive: 3.47%"}]}, {"compound": "CCC(C)N(C)C(=O)c1cc2ccccc2c(-c2ccccc2Cl)n1", "note": "(configuration not stated)", "values": [{"measurement": "Potency", "setting": "[13]", "result": "inconclusive: 29.6 µM [activator, single point]"}, {"measurement": "Potency", "setting": "[3]", "result": "active: 20.6 µM"}]}, {"compound": "CN1C(C(=O)Nc2ccccn2)=C(O)c2ccccc2S1(=O)=O", "values": [{"measurement": "Potency", "setting": "[3]", "result": "inconclusive: 7.31 µM [activator, partial curve]"}]}, {"compound": "Cc1noc(NS(=O)(=O)c2ccc(N)cc2)c1C", "values": [{"measurement": "activation", "setting": "[10]", "result": "inactive: -3.81% and inactive: -3.88%"}]}, {"compound": "Cc1cc(O)c2c(c1)C(=O)c1cccc(O)c1C2=O", "values": [{"measurement": "Potency", "setting": "[2]; [14]", "result": "active: 26.6 µM"}, {"measurement": "Potency", "setting": "[5]", "result": "inconclusive: 3.35 µM [inhibitor, partial curve, poor fit]"}, {"measurement": "Potency", "setting": "[6]", "result": "inconclusive: 5.96 µM [inhibitor, partial curve, poor fit]"}, {"measurement": "activation (TNF-alpha secretion)", "setting": "[9]", "result": "inactive: -0.109%"}, {"measurement": "Potency", "setting": "[4]", "result": "inactive"}]}]}
